According to PubChem BioAssay AID995 (National Center for Advancing Translational Sciences (NCATS), 2007):
Among all 72,000 compounds or so, about 710 (0.99%) were called active. The shares of active, inactive and inconclusive entries below differ from those in the screen. Calls follow the shape of the dose curve; as a rule, active = well fitted inhibition curve with a large enough effect; inconclusive = small, poorly fitted or top-dose-only effect; inactive = no such curve, though single readings can be large or run the other way. No potency is given beside an inconclusive call; the fits are too rough.

assay: qHTS Assay for Inhibitors of the ERK Signaling Pathway using a Homogeneous Screening Assay; conditions: HEK293-V1b, vasopressin-stimulated pERK AlphaScreen; activity, negative = inhibition: at 57.5 µM (top of the series) unless noted; also: nearly all actives have a fitted effect of over 55% in size
Summary of the method: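 Phosphorylated ERK1/2 detected via AlphaScreen bead proximity in lysates of V1b-expressing HEK293 cells given 25 nM vasopressin for 5 min after 30 min compound exposure (37 °C). AC50 from Hill equation; basal DMSO 0%, vasopressin 100%.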
% is scaled to controls: 0 for no effect and ±100 for the full control effect; potency is read from the fitted curve at half-maximal effect; tags tell the direction and shape of the fitted curve.

| Compound | activity, negative = inhibition | Potency |
| --- | --- | --- |
| CCN(CC)c1ccc(NC(=O)c2ccccc2F)cc1 | inactive: -24.7% | – |
| Cc1ccc(-c2nc(C#N)c(NCc3cccc4c3OCO4)o2)cc1 | – | inconclusive [inhibitor, partial curve] |
| CN=c1scc(C)n1/N=C/c1ccc(O)cc1O | – | inconclusive [inhibitor, full curve, poor fit] |
| Cc1cc(=O)n2nc(N3CCC(C(=O)NCc4cccnc4)CC3)sc2n1 | – | inconclusive [inhibitor, full curve, poor fit] |
| O=C1c2ccccc2C(O)(Cc2ccccc2)N1C1CCCCC1 (configuration not stated) | inactive: -4.04% | – |
| CCOC(=O)CSc1nc2c(sc3ccccc32)c(=O)n1CCCN1CCOCC1 | inactive: 15.3% | – |
| COc1ccc(C2CC(c3cccc(Cl)c3)n3nc(N)nc3N2)cc1 (configuration not stated) | – | inconclusive [inhibitor, partial curve] |
| Nc1ncnc2oc(-c3ccco3)c(-c3ccco3)c12 | – | inconclusive [inhibitor, single point] |
| Nc1ccccc1N=Nc1c(S(=O)(=O)O)cc2cc(S(=O)(=O)O)cc(O)c2c1O | inactive: -3.44% [at 11.5 µM] | – |
| c1ccc2c(c1)CCN(c1nc3cc4c(cc3s1)OCO4)C2 | inactive: -7.78% | – |
| Cc1sc2ncn(CC(=O)OC(C)C(=O)NC(C)(C)C)c(=O)c2c1C (configuration not stated) | – | inconclusive [inhibitor, partial curve] |
| CC(C)=CCc1c2c(c3occ(-c4ccc(O)cc4)c(=O)c3c1O)C=CC(C)(C)O2 | – | inconclusive [inhibitor, single point] |
| COC(=O)C1=C(N)Oc2cc(C)n(CCc3ccccc3)c(=O)c2C1c1cccnc1 (configuration not stated) | – | inconclusive [inhibitor, partial curve] |
| COCCn1c(N)c(C(=O)OCc2ccccc2)c2nc3ccccc3nc21 | inactive: 12.4% | – |
| COc1ccccc1CNc1cc(-c2ccccc2OC)ncn1 | – | active: 7.94 µM |
| CCOC(=O)N1CCN(c2ccc(C(=O)c3ccccc3)cc2F)CC1 | – | inconclusive [inhibitor, full curve] |
| Cc1nc(NCc2ccco2)c2oc3ccccc3c2n1 | – | active: 25.1 µM |
| COC(=O)N1CCC[C@@]2(CCN(C(=O)Nc3cccc(C#N)c3)C2)C1 | inactive: 6.96% | – |
| CN1C=CC=C/C1=C1\SC(=S)N(C2CCCCC2)C1=O | – | inconclusive [inhibitor, partial curve] |
| N#Cc1nc(COc2ccccc2Cl)oc1N1CCCCCC1 | – | inconclusive [inhibitor, single point] |
| O=c1c2c3nc4ccccc4nc3n(/N=C/c3ccco3)c2ncn1CCC1=CCCCC1 | – | inconclusive [inhibitor, partial curve] |
| COc1ccc(C2CC(C(F)(F)F)n3ncc(C(=O)NCc4cccnc4)c3N2)cc1OC (configuration not stated) | – | inconclusive [inhibitor, full curve] |
| CCOC(=O)c1c(-c2ccc(C)o2)csc1NC(=O)COC(=O)c1cccs1 | inactive: 25.4% | – |
| COC(=O)CN1C(=O)C2(C(C#N)=C(N)Oc3n[nH]c(-c4cccs4)c32)c2ccccc21 (configuration not stated) | inactive: 22.4% | – |

| Compound | activity, negative = inhibition | Potency |
| --- | --- | --- |
| O=C(Nc1ccc2c(c1)OCO2)c1ccc(Br)s1 | – | inconclusive [inhibitor, partial curve] |
| O=c1cc(-c2ccc(O)cc2)oc2cc(O)ccc12 | – | inconclusive [inhibitor, partial curve] |
| CS(=O)(=O)Nc1ccc(C(=O)NC2CCCC2)cc1 | – | inconclusive [inhibitor, partial curve] |
| C=CCn1c(SCC(=O)NCc2ccco2)nc2sc3c(c2c1=O)CCC3 | – | inconclusive [inhibitor, single point] |
| Cc1ccc(S(=O)(=O)N2CCN(C)CC2)cc1-c1nnc2c3ccccc3c(C)nn12 | – | inconclusive [inhibitor, full curve, poor fit] |
| Cc1ccc(-c2nc3ncccn3c2Nc2ccc3c(c2)OCCO3)o1 | – | inconclusive [inhibitor, partial curve] |
| CCCNC(=O)OC[C@H]1O[C@@H](CCO/N=C2/[C@H]3O[C@@H]3[C@@H](O)[C@H]3[C@H]2CCn2c(=O)n(-c4ccccc4)c(=O)n23)C=C[C@@H]1Oc1ccc(OC)cc1 | inactive: -3.44% [at 11.5 µM] | – |
| CC(C)n1c(-c2ccc(N(C)C)cc2)nc2ccccc21 | inactive: -23.4% | – |
| CCCC(=O)NCCCCNC(=O)CCC | inactive: -17.4% | – |
| COc1ccc(NC(=O)c2ccc3c(c2)C(=O)N(Cc2cccnc2)C3=O)c(OC)c1 | inactive: 3.35% | – |
| CC1(C)CCC(C)(C)c2cc(C(=O)Nc3ccc(C(=O)O)cc3)ccc21 | – | inconclusive [inhibitor, single point] |
| O=S(=O)(NC1CCc2ccccc21)c1ccc(S(=O)(=O)N2CCCC2)cc1 (configuration not stated) | – | inconclusive [inhibitor, single point] |
| CCOc1ccccc1O[C@@H](c1ccccc1)[C@@H]1CNCCO1 | inactive: 35.2% | – |
| CN1CCN(c2ncc3nc(-c4ccccc4)c(=O)n(C4CC4)c3n2)CC1 | inactive: 9.86% | – |
| CCOc1ccc(C2=Nn3c(nnc3-c3ccc(OC)cc3)SC2)cc1 | – | inconclusive [inhibitor, single point] |
| CC(C)CCn1c(SCc2ccc(Cl)cc2)nc2c1c(=O)[nH]c(=O)n2C | – | inconclusive [inhibitor, full curve, poor fit] |
| Cc1noc(C)c1C(=O)N1CCC2(CC1)CCN(c1ccccn1)CC2 | – | inconclusive [inhibitor, partial curve] |
| Cn1c(SC2C(=O)CC(C)(C)CC2=O)nnc1-c1ccco1 | – | inconclusive [inhibitor, single point] |
| CCn1c(=O)c2c(cnn2C)c2ccccc21 | – | inconclusive [inhibitor, partial curve] |
| COC(=O)N1CCC2(CCCN(C(=O)Nc3cccc(F)c3)C2)CC1 | inactive: 28.1% | – |
| COc1ccc(N2CCN(C(=O)c3ccc4nc(N5CCCCC5)sc4c3)CC2)cc1 | – | inconclusive [inhibitor, full curve] |
| c1csc(-c2nn3c(C4COc5ccccc5O4)nnc3s2)c1 (configuration not stated) | – | inconclusive [inhibitor, partial curve] |
| CCOC(=O)C1CCN(Cc2c(O)ccc3ccccc23)CC1 | – | inconclusive [inhibitor, full curve, poor fit] |
| CCCN1C(=O)c2ccc(C(=O)Nc3nccs3)cc2C1=O | inactive: -17.1% | – |

| Compound | activity, negative = inhibition | Potency |
| --- | --- | --- |
| Cc1c(C)c2cc3c4c(oc3c(C)c2oc1=O)CCCC4 | – | inconclusive [inhibitor, full curve, poor fit] |
| CCOC(=O)N1CCN(C(=O)C2CCCN(c3ncnc4c3sc3cccc(F)c34)C2)CC1 (configuration not stated) | – | inconclusive [inhibitor, single point] |
| CCC(C)C(=O)Nc1c2c(nc3c1CCC3)CCCC2 (configuration not stated) | inactive: -23.6% | – |
| CC[C@]1(O)C[C@H]2CN(CCc3c([nH]c4ccccc34)[C@](C(=O)OC)(c3cc4c(cc3OC)N(C=O)[C@H]3[C@@](O)(C(=O)OC)[C@H](OC(C)=O)[C@@]5(CC)C=CCN6CC[C@]43[C@H]65)C2)C1 | inactive: 15.9% | – |
| COc1ccccc1N1CCN(C[C@@H](O)COc2cccc3ccccc23)CC1 | – | inconclusive [inhibitor, partial curve, poor fit] |
| CCOc1ccc(C(C)=O)cc1CSc1nnc(-c2cccs2)n1CC1CCCO1 (configuration not stated) | inactive: -23.5% | – |
| Cc1ccc(C(=O)Nc2cccc(C(=O)NCc3ccco3)c2)cc1 | – | inconclusive [inhibitor, partial curve] |
| NCCNS(=O)(=O)c1cccc2c(Cl)cccc12 | – | inactive |
| COc1ccc2[nH]cc(CCNc3cc(-c4ccc5c(c4)OCO5)ncn3)c2c1 | – | inconclusive [inhibitor, single point] |
| COc1ccc(-c2csc(Cc3nnc4n3CCCCC4)n2)cc1OC | inactive: -20.9% | – |
| c1c2c(cc3sc(N4CCOCC4)nc13)OCCO2 | inactive: -9.21% | – |
| CCC(C)(C)n1nnnc1C(c1ccc(C)cc1)N1CCCC1 (configuration not stated) | inactive: 6.49% | – |
| O=c1cc(CSc2nnnn2-c2ccccc2)nc2scc(-c3ccccc3)n12 | – | inconclusive [inhibitor, single point] |
| CCCCC#Cc1nc(NC)c2ncn([C@@H]3O[C@@H](CO)[C@H](O)[C@H]3O)c2n1 | – | inconclusive [inhibitor, full curve, poor fit] |
| COc1ccc2c(C(F)(F)F)cc(=O)oc2c1C | inactive: -7.94% | – |
| CSc1ccc(S(=O)(=O)Nc2ccc(F)cc2)cc1 | – | inconclusive [inhibitor, single point] |
| CCCc1nc2oc3c(NCc4ccccn4)ncnc3c2c2c1COC(C)(C)C2 | inactive: -20.1% | – |
| CCc1cccc2c(-c3ccccc3)c3c(nc12)OCC3 | inactive: 1.68% | – |
| O=c1[nH]c2ccccc2nc1C(F)(F)C(F)F | – | inconclusive [inhibitor, partial curve] |
| O=C(Nc1ccccc1N1CCCC1)c1ccc2c(c1)OCO2 | – | inconclusive [inhibitor, partial curve] |
| COc1ccc2nc(NC(=O)C3CCN(S(=O)(=O)c4cnc[nH]4)CC3)sc2c1 | – | inconclusive [inhibitor, single point] |
| Cc1cc(C(=O)Nc2sc(C)c(-c3ccc(F)cc3)c2C(N)=O)no1 | inactive: 7.63% | – |
| N#CC(C(=O)NCc1ccco1)c1nc2ccccc2nc1N1CCOCC1 (configuration not stated) | inactive: -29.8% | – |
| Cn1cccc1Cc1nnc(SCC(=O)NC2CCCC2)n1CCc1ccccc1 | – | inconclusive [inhibitor, partial curve] |
